Over roughly 33,000 sequences, “E-score (-0.5 to 0.5)” has its median near -0.053; the highest 2% begin near 0.37. This is one part of the list.
Molecular target: Hap1 (UniProt P0CE41)
Assay: PBM E-score (8-mer binding enrichment) (E-score (-0.5 to 0.5)); higher = stronger / more preferred TF binding; most listed sequences are background and not binding sites
Details: protein concentration: 200 nM; construct: GST-DNA-binding domain
Experimental: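 Universal 'all 10-mer' protein binding microarrays (Agilent AMADID 015681) probed with GST-tagged S. cerevisiae TFs (full-length or DBD) made by in vitro transcription/translation (PURExpress), about 100-200 nM. Bound TF was detected with fluorescent anti-GST. Each ungapped 8-mer (which stands for itself and its reverse complement) is scored by the PBM enrichment score (E-score), a modified Wilcoxon-Mann-Whitney statistic from -0.5 to +0.5, computed with the Universal PBM Analysis Suite. Scale: above 0.35 generally sequence-specific binding.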

Sequence of UniProt P0CE41 (P0CE41 whole entry): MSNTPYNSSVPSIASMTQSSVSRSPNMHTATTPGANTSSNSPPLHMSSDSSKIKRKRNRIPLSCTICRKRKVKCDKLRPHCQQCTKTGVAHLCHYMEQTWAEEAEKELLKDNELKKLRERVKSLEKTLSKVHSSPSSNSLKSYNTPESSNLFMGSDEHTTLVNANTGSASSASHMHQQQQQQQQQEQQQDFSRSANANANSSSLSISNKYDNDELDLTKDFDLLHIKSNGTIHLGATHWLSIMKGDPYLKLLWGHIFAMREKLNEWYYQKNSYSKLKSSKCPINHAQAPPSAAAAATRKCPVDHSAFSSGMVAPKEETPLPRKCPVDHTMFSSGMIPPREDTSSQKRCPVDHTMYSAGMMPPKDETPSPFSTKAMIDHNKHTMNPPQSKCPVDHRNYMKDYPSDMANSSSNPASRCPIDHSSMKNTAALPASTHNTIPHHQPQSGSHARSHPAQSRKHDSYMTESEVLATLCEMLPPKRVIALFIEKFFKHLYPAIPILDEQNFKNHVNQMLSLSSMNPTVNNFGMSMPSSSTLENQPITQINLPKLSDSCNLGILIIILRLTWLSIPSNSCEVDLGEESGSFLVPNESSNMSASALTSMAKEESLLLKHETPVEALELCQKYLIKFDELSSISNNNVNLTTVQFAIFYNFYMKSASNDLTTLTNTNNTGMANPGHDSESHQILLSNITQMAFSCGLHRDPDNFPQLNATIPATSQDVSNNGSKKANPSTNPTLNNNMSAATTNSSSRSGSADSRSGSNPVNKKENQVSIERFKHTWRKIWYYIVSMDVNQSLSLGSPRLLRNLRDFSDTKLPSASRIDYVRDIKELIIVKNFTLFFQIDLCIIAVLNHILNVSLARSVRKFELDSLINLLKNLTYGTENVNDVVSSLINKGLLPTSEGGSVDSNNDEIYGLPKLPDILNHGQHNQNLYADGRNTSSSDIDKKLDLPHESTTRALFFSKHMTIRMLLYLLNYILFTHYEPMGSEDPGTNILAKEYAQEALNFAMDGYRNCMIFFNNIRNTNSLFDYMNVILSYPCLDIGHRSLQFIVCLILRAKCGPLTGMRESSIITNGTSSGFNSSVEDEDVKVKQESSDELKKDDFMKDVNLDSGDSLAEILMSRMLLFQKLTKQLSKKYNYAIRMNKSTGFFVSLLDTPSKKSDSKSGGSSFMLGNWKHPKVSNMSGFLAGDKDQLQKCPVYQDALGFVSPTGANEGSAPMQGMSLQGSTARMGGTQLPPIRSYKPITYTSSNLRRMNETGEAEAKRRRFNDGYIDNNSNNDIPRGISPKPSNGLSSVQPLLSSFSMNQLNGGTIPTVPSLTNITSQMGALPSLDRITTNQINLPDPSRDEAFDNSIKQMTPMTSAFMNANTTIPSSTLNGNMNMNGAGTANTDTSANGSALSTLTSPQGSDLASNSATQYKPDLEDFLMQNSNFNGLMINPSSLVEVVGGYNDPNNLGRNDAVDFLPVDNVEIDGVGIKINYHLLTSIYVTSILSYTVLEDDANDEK

In order of rising “PBM E-score” value:
1. ACCCCTTG  -0.357
2. GTGAGCCA  -0.339
3. CACTAGCA  -0.325
4. CAGAGCCA  -0.318
5. AGGATCTG  -0.303
6. CTCAGTCA  -0.299
7. CTGTGGCA  -0.287
8. GCAGTCTA  -0.25
9. CTAGGCAC  -0.243
10. GTACCTCA  -0.238
11. ACAGGCCC  -0.237
12. CTCGACAA  -0.236
13. GGTTTCCA  -0.221
14. CTGACTGC  -0.22
15. AGCGTGGG  -0.212
16. CCTTTGAA  -0.205
17. AAAGGCAA  -0.202
18. CCTCTTCA  -0.201
19. GCATAGCA  -0.201
20. CACTCTAA  -0.197
21. ACAGTCTG  -0.192
22. ATGGGCTG  -0.189
23. CAGGGACG  -0.189
24. CTAGCAGC  -0.188
25. GCCCCTGA  -0.186
26. CTCTTAGA  -0.185
27. AAGTTTCT  -0.182
28. CAATATGG  -0.177
29. GCCTGATA  -0.176
30. AACTTGCA  -0.173
31. ATCCTTAC  -0.172
32. TCGACTCA  -0.169
33. ATGTTACA  -0.169
34. AAGAAGGC  -0.169
35. AACTAAAT  -0.168
36. AACCTACG  -0.167
37. AGCTGGTA  -0.165
38. ACTAAGGA  -0.162
39. GAGAGCCC  -0.16
40. CACTGTTC  -0.16
41. TCAGCAAA  -0.157
42. AGCATCAT  -0.156
43. TCGTGCCA  -0.155
44. TACTCAGA  -0.149
45. AGGTACCT  -0.144
46. TCGTCACA  -0.139
47. TAAGTTCA  -0.139
48. AATATAGA  -0.137
49. ATAGATGA  -0.135
50. GTATCCCA  -0.135
51. CCTGAATC  -0.134
52. GACCTTGC  -0.133
53. CAAAGTGC  -0.13
54. AAGGTACT  -0.129
55. GTGGAGGA  -0.125
56. TACCAAAA  -0.121
57. AGGCTTTA  -0.116
58. CAGCCCAA  -0.112
59. ACTATCAC  -0.111
60. AAAAGTAC  -0.111
61. CCACTTTC  -0.11
62. CGCCACAA  -0.105
63. AAACTCCT  -0.1
64. GACGCCTC  -0.0997
65. CCAGATTA  -0.0959
66. ACCATACA  -0.0945
67. CATAGTAA  -0.0921
68. ACATCGAT  -0.089
69. AGATCATA  -0.0882
70. GATTTGAA  -0.078
71. ACTGCTAC  -0.0768
72. AGTTAGTA  -0.0745
73. GAGCCAGA  -0.0724
74. AGTGGCGG  -0.0718
75. GCATCGTA  -0.0705
76. ATATACAG  -0.0679
77. ACATCATA  -0.0643
78. ATCTGCAG  -0.0634
79. CCCACTGC  -0.0617
80. CAGCTTGC  -0.0611
81. AGGTGCAC  -0.0598
82. TAGCTCCA  -0.0585
83. ACGCCTAT  -0.0567
84. GTAAAGAA  -0.0559
85. GATCCTAC  -0.0541
86. GTTTTGGA  -0.054
87. AGATACGA  -0.0531
88. TAGATCCA  -0.0506
89. TCGCCACA  -0.0472
90. CAAATTTC  -0.0418
91. ACTAGTTC  -0.0373
92. AAGCTTTC  -0.0343
93. GCTATAAA  -0.0266
94. ACAGAAAA  -0.0222
95. AGAAAAAC  -0.0202
96. ATTACGAG  -0.0195
97. CATTATAG  -0.0155
98. CGTAAGAG  -0.0129
99. GTAACGAC  -0.0123
100. ACCCGTGG  -0.0105
101. ATTCGCAA  -0.00869
102. GGTTAGTA  -0.00243
103. TATGGAGA  -0.00213
104. GAATGATC  0.00129
105. CACTACTA  0.00169
106. AGCTCGCA  0.00172
107. CGCAGTAA  0.00425
108. CTCGCGAA  0.0108
109. GCAGCTAA  0.0163
110. GCAGTTAC  0.0164
111. AATTAGCC  0.0175
112. CACCCATG  0.0203
113. GCGAACGC  0.0232
114. CATTCTTC  0.0268
115. GTTGTTAA  0.0298
116. CTTAGCCC  0.0356
117. ACGGGGGC  0.0386
118. TACGATAA  0.0399
119. ATAAGTAA  0.0425
120. CGTGATTC  0.0437
121. ATAAATAA  0.0473
122. ATTTCCTA  0.0502
123. AAAGGAAG  0.0515
124. ACTCCCCT  0.0602
125. CGTTCGTA  0.0644
126. CGTTAGCA  0.0694
127. GCTAAGAA  0.0725
128. GACACGCC  0.0727
129. CCATCCCC  0.0741
130. GACCACTC  0.0772
131. CTTTACTA  0.0869
132. GAGAGCGC  0.0882
133. ACGGTTTG  0.0895
134. GGCCACGA  0.0965
135. ATCGATAA  0.102
136. CTTAGCAC  0.111
137. CCGTCAAA  0.114
138. GGGGTCTA  0.125
139. CGGATAGC  0.128
140. ACGTACCG  0.129
141. AACTCGCT  0.131
142. ACCGTTAC  0.132
143. CGAATGGC  0.133
144. CGAATGAC  0.135
145. ATTAGAGC  0.136
146. AATCACCA  0.137
147. AGATTATG  0.144
148. CAATGGAA  0.145
149. AAGTTTAT  0.145
150. CACATGCG  0.152
151. ACATACCG  0.163
152. GACGAAAA  0.167
153. ACGGGCGG  0.171
154. CGCGACCG  0.176
155. GAAATTAC  0.178
156. ACACGGAA  0.179
157. CCGCAAGA  0.191
158. CCGTGAAA  0.2
159. ATCCGTCA  0.212
160. GGGGCCGA  0.233
161. GGGAATTA  0.236
162. CGGGCAAA  0.249
163. AGCCGGCT  0.25
164. TCGGCCAA  0.256
165. AGCATCGG  0.278
166. CGGGATCC  0.28
167. GGAAATTA  0.292
168. CAAGCCGG  0.292
169. CGAACCGA  0.293
170. CCGGTCCC  0.323
171. AGTTCGGG  0.326
172. TCGCCCGA  0.362
